Assay results taken from PubChem BioAssay AID686978 (National Center for Advancing Translational Sciences (NCATS), 2013).
Values joined by “and” are separate entries in the source; they are usually repeats but may differ in a detail not shown here. Equal values may be shown once. The whole screen tested about 420,000 compounds, of which about 64,000 (15%) were called active. The shares of active, inactive and inconclusive entries below differ from those in the screen. Calls come from the whole dose curve; as a rule, active = well fitted inhibition curve with a large enough effect; inconclusive = small, poorly fitted or top-dose-only effect; inactive = flat fitted curve, though single readings scatter. Potencies of inconclusive entries are left out as doubtful fits. Where a structure was tested more than once in an assay, its records may differ in their call.

Assay: qHTS for Inhibitors of human tyrosyl-DNA phosphodiesterase 1 (TDP1): qHTS in cells in absence of CPT; note: nearly all actives have a fitted effect of over 55% in size
Conditions: DT40 Tdp1-/- hTDP1 cells, no CPT, ATP luminescence, 48 h; activity change, negative = growth inhibition: at 46.2 µM (top of the series) unless noted
How it was run: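 Seeded 400 DT40-hTDP1 cells/well (vehicle DMSO, no 20 nM CPT); pinned compounds; ≥48 hr at 37 °C; CellTiter-Glo luminescence as viability measure.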
% is set by controls: 0 for no effect and ±100 for the full control effect; potency is the fitted concentration of half-maximal effect; tags give direction and shape of the fitted curve.

SMILES | Potency | activity change, negative = growth inhibition
Cc1ccc(NC2=NC3(CCCCC3)N=C(N)N2)c(C)c1 | inconclusive [inhibitor, single point] | 
Cc1cscc1-c1cc2nc(NCCCN(C)C)n(C)c(=O)c2s1 | inconclusive [inhibitor, partial curve, poor fit] | 
CCCCn1nc(C(=O)N(C)Cc2nc3ccccc3c(=O)[nH]2)c2ccccc2c1=O | inactive | 
COCCOC(=O)c1c(NC(=O)COC(=O)c2ccc(C)o2)sc(C(N)=O)c1C | inconclusive [inhibitor, single point] | 
CCOc1ccc(CCNC(=O)CCCc2nnc3n(CCCOC)c(=O)c4sccc4n23)cc1 | inactive | 
O=[N+]([O-])c1cccc(/C([O-])=C(/C(=S)Nc2ccccc2F)[n+]2ccccc2)c1 | inactive | 
O=C1CN(C(=O)c2ccccc2)c2ccccc2N1 | inactive | 
COc1cccc(S(=O)(=O)Nc2ccc3sc(C)nc3c2)c1 | active: 23.1 µM | 
COc1ccc(C2SCC(C(=O)NCc3ccc(F)cc3)N2C(C)=O)cc1 (stereo unspecified) | inactive | 
CCCCn1c(N)c(N(CCC(C)C)C(=O)c2ccc([N+](=O)[O-])s2)c(=O)[nH]c1=O | inconclusive [inhibitor, single point] | 
CCc1noc(C)c1C(=O)Nc1ccc(C)c(S(=O)(=O)N2CCCCCC2)c1 | inconclusive [inhibitor, single point] | 
CC(C)SC1=NC(C)(C)C=C(/C=C/c2c(Cl)cccc2Cl)N1 | inconclusive [inhibitor, single point] | 
c1ccc(Cn2cc(CN3CCCO3)c(-c3ccc4c(c3)OCO4)n2)cc1 | inactive | 
S=C(NCc1ccc2c(c1)OCO2)Nc1ccc2nsnc2c1 | inconclusive [inhibitor, partial curve] | 
CCN1C(=O)[C@H]2[C@@H](c3ccc(-c4ccc5c(c4)OCO5)c(OC)c3)N[C@@](C)(C(=O)OC)[C@H]2C1=O | inconclusive [inhibitor, single point] | 
CCOc1ccc(S(=O)(=O)N2CCCC(C(=O)N3CCN(c4ccccc4)CC3)C2)cc1 (stereo unspecified) | active: 20.6 µM | 
C=CCN(C(=O)Nc1ccc(OC)cc1)c1nnc(-c2ccncc2)s1 | inconclusive [inhibitor, single point] | 
Cc1ncc(C[n+]2ccc(C)c(C)c2)c(N)n1 | inactive | 
CCOc1cc(N2CCOCC2)c(OCC)cc1NC(=O)c1ccc(F)c(S(=O)(=O)N2CCOCC2)c1 | inactive | 
O=C(CN1CCN(S(=O)(=O)c2ccc(Cl)s2)CC1)NCc1ccc(Cl)cc1 | inactive | 
CN(C)c1ccc(C(=O)N/N=C/c2cc(Br)cc(Br)c2O)cc1 | active: 11.6 µM | 
Cc1c(C(=O)N2CCCCCC2)c(S(=O)(=O)Nc2ccc(OC(F)(F)F)cc2)c(C)n1C | active: 16.4 µM | 
CN(CC(=O)Nc1ccccc1Cl)C(=O)CN1C(=O)NC(c2ccccc2)(c2ccccc2)C1=O | inactive | 
CCc1ccccc1NC(=O)CSc1nc2cc(C(=O)NCC3CCCO3)ccc2c(=O)n1CC1CCCO1 (stereo unspecified) | inconclusive [inhibitor, single point] | 

SMILES | Potency | activity change, negative = growth inhibition
CNc1ncc(C(=O)c2ccc(-c3ccccc3)cc2)s1 | inactive | 
COC(=O)[C@]12CCCCC=C1N(Cc1ccc(Cl)cc1Cl)C(=O)[C@H](CC(=O)N1CCCC1)C2 | inconclusive [inhibitor, single point] | 
Cc1cc(C(=O)COC(=O)c2ccc(N)c([N+](=O)[O-])c2)c(C)n1Cc1ccc2c(c1)OCO2 | inconclusive [inhibitor, full curve, poor fit] | 
Cc1ccc2nc(-c3ccccn3)c(N)n2c1 | inconclusive [inhibitor, single point] | 
Cc1cccc2cc(C#N)c(SCC(=O)N3CCC(C)CC3)nc12 | inconclusive [inhibitor, single point] | 
CC(=O)NCCNc1nc(NCc2cccs2)nc2ccsc12 | inconclusive [inhibitor, single point] | 
CCOC(=O)c1ccc(NC(=O)CSc2cc(-c3ccccc3)nc(C)n2)cc1 | inconclusive [inhibitor, single point] | 
CCC(CC)NC(=O)Cc1ccccc1[N+](=O)[O-] | inactive | 
Cc1ccc(-c2nnc(-c3ccccc3)c(N3CCOCC3)n2)cc1 | active: 16.4 µM | 
Cc1ccc(N(C)S(=O)(=O)c2c(C)noc2/C=C/N(C)C)cc1 | inconclusive [inhibitor, single point] | 
C=C1CCN([C@@H](CC(C)C)C(=O)NCc2ccccc2)S(=O)(=O)c2ccccc21 | inconclusive [inhibitor, single point] | 
Cc1ccc(C(=O)Nc2ccc(C(=O)N/N=C/c3ccc(C)o3)cc2)cc1 | inconclusive [inhibitor, single point] | 
O=C(NCCN1CCOCC1)C1CCN(c2ncnc3c2sc2cccc(F)c23)CC1 | active: 20.6 µM | 
COc1cccc(NC(=O)c2oc3ccccc3c2NC(C)=O)c1 | inactive | 
O=C(COC(=O)CCC1CCCC1)Nc1ccc(Cl)cc1F |  | inconclusive: -26.7% [inhibitor]
Cc1ccc([N+](=O)[O-])c2c1C(N1CCCCC1)C(C)(C)O2 (stereo unspecified) | inconclusive [inhibitor, single point] | 
Cc1cc(NC(=O)CS(=O)CC(=O)Nc2c(C)cccc2C)ccc1-n1cnnn1 (stereo unspecified) | inactive | 
NC(=O)COc1ccc(S(=O)(=O)N2CCCC2)cc1 | inactive | 
CN(C)c1ccc(C(=O)C=Cc2ccc([N+](=O)[O-])cc2)cc1 | inconclusive [inhibitor, single point] | 
O=C(NC(c1cccnc1)c1ccc2c(c1)OCO2)C1CCN(CCOc2ccc(Cl)cc2Cl)CC1 (stereo unspecified) | inconclusive [inhibitor, single point] | 
CC(C)[C@H]1COCCS(=O)(=O)N1Cc1ccccc1-c1ccccc1 | inconclusive [inhibitor, single point] | 
COc1ccc(NC(=O)c2sc(=O)n(Cc3cccc(C(F)(F)F)c3)c2C)cc1OC | inconclusive [inhibitor, single point] | 
CCN(CC(O)c1cccc(O)c1)C(=O)C12CC3CC(CC(C3)C1)C2 (stereo unspecified) | inconclusive [inhibitor, single point] | 
COc1ccc(-n2c(C)cc(C(=O)COC(=O)c3cc(OC)c(OC)cc3NC(=O)c3cccs3)c2C)cc1 | inconclusive [inhibitor, single point] | 

SMILES | Potency | activity change, negative = growth inhibition
COc1cccc(CNC(=O)CN2C(=O)NC(c3ccccc3)(c3ccccc3)C2=O)c1 | inconclusive [inhibitor, single point] | 
Cc1ccc(C)c(N(C)C(=O)CCNC(=O)Cn2cnc3ccccc3c2=O)c1 | inconclusive [inhibitor, partial curve] | 
CC(C)CC(=O)Nc1nnc(S(=O)(=O)N(C)c2ccc(Cl)cc2)s1 | inactive and active: 326 nM | 
CC(C)(C)CC(C)(C)NC(=S)NC1CCN(Cc2ccccc2)CC1 | active: 4.61 µM | 
CC(C)CC(CO)N1CCN(C(=O)c2ccc(C(C)(C)C)cc2)CCC1=O (stereo unspecified) |  | inconclusive: -32.2% [inhibitor]
COc1ccc(OC)c(/C=N\NC(=O)CSc2nnc(CCCc3ccc(OC)c(C)c3)o2)c1 | inconclusive [inhibitor, partial curve] | 
COc1cc(CN2CCCC(CO)(Cc3ccccc3C)C2)cc2c1OCO2 (stereo unspecified) | inconclusive [inhibitor, single point] | 
O=C(CNC(=O)c1ccccc1Cl)OCc1cc(=O)n2nc(C3CC3)sc2n1 | inactive | 
COc1cc2nc(N3CCCN(C)CC3)nc(NC3CCN(Cc4ccccc4)CC3)c2cc1OC | active: 10 µM and active: 3.98 µM | 
O=C(N/N=C/c1cc(O)ccc1[N+](=O)[O-])c1ccc2c(c1)OCCO2 | inconclusive [inhibitor, single point] | 
CN(C)CCCN(C(=O)COc1ccc(Cl)cc1)c1nc2cc3c(cc2s1)OCO3 | active: 13 µM | 
CN1CCN(S(=O)(=O)c2ccc(Br)c3ccccc23)CC1 | inactive | 
CCCNC(=O)C1(C)CCN(CCOc2ccc(Cl)cc2)C1 (stereo unspecified) | inactive | 
COc1ccc(Nc2nc(-c3ccccc3O)nc3ccccc23)cc1 | active: 18.4 µM | 
Cc1ccc(C2(C(F)(F)F)NC(=O)N3CCN=C3S2)cc1 (stereo unspecified) | inconclusive [inhibitor, single point] | 
Cc1c(-c2ccc(Cl)cc2)c(=O)oc2c(CN3CCN(C)CC3)c(O)ccc12 | active: 23.1 µM | 
COc1cccc(/C=C2\CCC(C3CCCC3)C2=O)c1 (stereo unspecified) | inactive | 
CC(=O)Oc1ccc2c(=O)c(Oc3ccccc3)coc2c1OC(C)=O | inconclusive [inhibitor, partial curve, poor fit] | 
CC(Oc1ccc(Br)cc1)C(=O)Nc1nc(-c2ccccn2)cs1 (stereo unspecified) | active: 3.26 µM | 
Cc1ccc(S(=O)(=O)NCc2ccc(C(=O)NCCCN3CCC(Cc4ccccc4)CC3)cc2)cc1 | inactive | 
O=C(CCC(=O)OCc1cccc(C(=O)Oc2ccccc2)c1)Nc1cccc2ccccc12 | inactive | 
Brc1ccc2c(c1)C(c1cccnc1)=NNC(c1cccs1)=N2 | inconclusive [inhibitor, single point] | 
CCOC(=O)C1CCCN(C(=O)c2cc3c(Cl)nc4ccccc4c3s2)C1 (stereo unspecified) | active: 18.4 µM | 
